The other results are listed elsewhere or left out. At the low end of the ranking the order means little.

Among the data in paper PMC6212790 are binding signal values, retold here.

This test deals with T1, GST-Rok (full length) (UniProt O34857).
T1 sequence: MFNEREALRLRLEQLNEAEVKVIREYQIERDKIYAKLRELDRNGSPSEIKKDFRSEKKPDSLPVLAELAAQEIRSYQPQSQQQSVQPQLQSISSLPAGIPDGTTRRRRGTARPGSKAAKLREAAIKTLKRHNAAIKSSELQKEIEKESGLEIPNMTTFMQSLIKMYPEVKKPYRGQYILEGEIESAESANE
The experiment in a line: protein binding microarray.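 Note: rank score from −0.5 (least bound) to 0.5 (best bound).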 As to conditions: Rok is a gene silencer of Bacillus subtilis; high values mean tight binding; most listed sequences are background and not binding sites; double strand, one strand shown.
As for GACAGATA, the binding signal was 0.176 E-score.

CAAAATGA registered a binding signal of 0.153 E-score.

Consider AGCTGCTG, for which the binding signal was -0.167 E-score.

Take ACTGCCGA: the binding signal was -0.198 E-score.

As to AATATCAA, the binding signal was 0.29 E-score.

Regarding CCAGTAGG, the binding signal is 0.103 E-score.

Regarding CCACTCGA, the binding signal was -0.0428 E-score.

With AGCCTCTA, the binding signal was found to be 0.0465 E-score.

In the case of CTAGGGGC, the binding signal was -0.229 E-score.

The sequence CCCATCCC displayed a binding signal of -0.266 E-score.

As for CACGCATG, the binding signal is -0.148 E-score.

As to AAAGAAAC, the binding signal is -0.0495 E-score.

With GTCCCTGA, the binding signal was -0.197 E-score.

In turn, CCTACAGA showed a binding signal of -0.0148 E-score.

Regarding TCGCACCA, the binding signal was -0.107 E-score.

Turning to TAGTCATA, the binding signal turned out to be 0.154 E-score.

Turning to CTCCTCGA, the binding signal is -0.0863 E-score.

CACAGCGA returned a binding signal of -0.108 E-score.

As to ATCGGCAA, the binding signal was -0.159 E-score.

Sequence CCGCCCCC showed a binding signal of -0.354 E-score.

The sequence CACCTCGC gave a binding signal of -0.177 E-score.

With CAACTGCG, the binding signal is -0.142 E-score.

For CGGTTTCA, the binding signal is -0.0506 E-score.

In turn, CCTGGTCA returned a binding signal of -0.133 E-score.

Turning to GGATGGCC, the binding signal is -0.338 E-score.

Regarding ACGTGCCA, the binding signal turned out to be 0.0751 E-score.

Consider ATGACGGA, for which the binding signal amounted to 0.185 E-score.

TCGTTAGA: the binding signal was -0.0607 E-score.

In turn, ACGCAGAA came in with a binding signal of -0.0649 E-score.

TTATGGAA: the binding signal came to 0.135 E-score.

CCCTTGAC had a binding signal of -0.291 E-score.

AGTCGTGC showed a binding signal of 0.0818 E-score.

With GAGACACA, the binding signal is -0.151 E-score.

For the sequence TGGATCAA, the binding signal was -0.0175 E-score.

In turn, TACCGGAA had a binding signal of 0.0111 E-score.

As for CTAGCTGA, the binding signal came to 0.0781 E-score.

CGCAGCTC: the binding signal is -0.257 E-score.

Turning to AGCGTCAA, the binding signal is -0.0513 E-score.

CGGGGTGA: the binding signal was -0.131 E-score.

For the sequence GCTCTTAC, the binding signal is -0.0751 E-score.

CTGGCGCA had a binding signal of -0.124 E-score.

Sequence GATATGCA displayed a binding signal of 0.185 E-score.

As to AAGTAATC, the binding signal was 0.0927 E-score.

Sequence TATCATGA had a binding signal of 0.173 E-score.

Consider GCGGCGTA, for which the binding signal was -0.0082 E-score.

Sequence CTCGGTGA came in with a binding signal of 0.0549 E-score.

In the case of AGCCAAAT, the binding signal came out at 0.0925 E-score.

Take ACTATTCA: the binding signal came to 0.196 E-score.

In turn, AAATACGT came in with a binding signal of 0.326 E-score.

GGAAGTAC gave a binding signal of -0.1 E-score.

In turn, TAATATAA came in with a binding signal of 0.236 E-score.

Regarding AAATAGGG, the binding signal is -0.165 E-score.

ATCTCGCC gave a binding signal of 0.0829 E-score.

On to AGGTCTTA, for which the binding signal is -0.26 E-score.

AAATATTC returned a binding signal of 0.251 E-score.

On to ACGTCCGG, for which the binding signal was -0.0632 E-score.

Sequence CCGGTATC gave a binding signal of 0.0923 E-score.

For the sequence AAACCGCA, the binding signal was -0.232 E-score.

GGGCAAAA yielded a binding signal of -0.00831 E-score.

With CCGCTTGA, the binding signal was -0.0486 E-score.

On to ATCCAATG, for which the binding signal turned out to be 0.11 E-score.

CGTCGCAA: the binding signal was -0.166 E-score.

The sequence GAGCCATC displayed a binding signal of -0.0688 E-score.

In turn, TATTCTGA had a binding signal of 0.119 E-score.

ACTCTCGC had a binding signal of -0.085 E-score.

AAGACTAA returned a binding signal of 0.108 E-score.

Take CGTAGACA: the binding signal was -0.198 E-score.

In the case of AGCCGACG, the binding signal was -0.232 E-score.

Take CCGCATTA: the binding signal is 0.0272 E-score.

AGAAATTG returned a binding signal of 0.0823 E-score.

Sequence TAATATGA yielded a binding signal of 0.221 E-score.

For the sequence AGCTCTGA, the binding signal is -0.125 E-score.

ATTATTAC returned a binding signal of 0.382 E-score.

CACACGCC: the binding signal was -0.206 E-score.

For CTAGGGCC, the binding signal was -0.206 E-score.

For TATTGGCA, the binding signal was 0.157 E-score.

For the sequence GGGACTTA, the binding signal was 0.127 E-score.

Take AGACTTGG: the binding signal is -0.114 E-score.

AGCACGTA had a binding signal of -0.0375 E-score.

As for CTAGTCAG, the binding signal amounted to 0.00365 E-score.

In turn, CAGTCGAC had a binding signal of -0.19 E-score.

The sequence GGGGCAGA gave a binding signal of -0.356 E-score.

CCCTCGGA yielded a binding signal of -0.253 E-score.

ACGCCAGT gave a binding signal of -0.219 E-score.

Consider CCGTGCTA, for which the binding signal is -0.0122 E-score.

As for AACTGTGA, the binding signal was 0.204 E-score.

In the case of CTTCACAA, the binding signal was determined as 0.035 E-score.

As to CAAGAGCG, the binding signal is -0.0807 E-score.

GAAGGTCC had a binding signal of -0.376 E-score.

Sequence AACCTAGG had a binding signal of 0.0548 E-score.

ACGGGAAC: the binding signal is -0.208 E-score.

With ATAAAGAA, the binding signal is -0.0956 E-score.

For the sequence GAATTATA, the binding signal was 0.326 E-score.

Regarding CCACCGAG, the binding signal is -0.162 E-score.

On to TCCGCGCA, for which the binding signal is -0.115 E-score.

For the sequence ACCGAACC, the binding signal was -0.111 E-score.

AGTCCTCA: the binding signal was 0.012 E-score.

GGACACAA came in with a binding signal of -0.24 E-score.

Consider CATGTGCC, for which the binding signal is 0.0241 E-score.

On to CGCCACAA, for which the binding signal is -0.0999 E-score.

In turn, GCTTGAAC came in with a binding signal of -0.0383 E-score.

In turn, GCCTAGCC registered a binding signal of -0.107 E-score.

As to ACAGCTTA, the binding signal is -0.00768 E-score.

Turning to CCCCGACC, the binding signal is -0.338 E-score.

On to AATTCGGG, for which the binding signal was determined as 0.00611 E-score.

In the case of AGGTGGTC, the binding signal was -0.35 E-score.

For ACCGGTTC, the binding signal was -0.188 E-score.

Sequence ACTCTAAA displayed a binding signal of -0.0841 E-score.

Sequence CGTGTTAG had a binding signal of -0.029 E-score.

Take GTCAAAAC: the binding signal is 0.00409 E-score.

The sequence ATTAGCCC had a binding signal of -0.135 E-score.

Sequence GAGGGATA displayed a binding signal of -0.166 E-score.

On to CACCGGTG, for which the binding signal is -0.261 E-score.

Turning to GATTCTCC, the binding signal came out at 0.234 E-score.

ATCCCAGG had a binding signal of 0.00826 E-score.

As to ACCCGATA, the binding signal stood at 0.194 E-score.

The sequence CAGGTATG came in with a binding signal of 0.179 E-score.

Regarding GTATCGTA, the binding signal was found to be 0.295 E-score.

In turn, CCAAGGAA came in with a binding signal of -0.0887 E-score.

As for GCAGGATA, the binding signal was -0.0229 E-score.

Turning to ACACCGCC, the binding signal was -0.226 E-score.

The sequence GCCGATAA gave a binding signal of 0.039 E-score.

On to GCAGCCCC, for which the binding signal was -0.436 E-score.

The sequence CGTCCTGC gave a binding signal of -0.293 E-score.

GGACATCA gave a binding signal of -0.293 E-score.

Regarding AATTTGAG, the binding signal stood at 0.0604 E-score.

CCACATTA displayed a binding signal of 0.125 E-score.

The sequence ACATTCGC came in with a binding signal of 0.0185 E-score.

Turning to AATGACCA, the binding signal was -0.151 E-score.

With AACAGCTC, the binding signal was 0.0909 E-score.

With ATCCGGGC, the binding signal was -0.201 E-score.

Sequence CGCGGTAA yielded a binding signal of 0.147 E-score.

In turn, AGGTCGAC gave a binding signal of 0.1 E-score.

For the sequence GTATTAGA, the binding signal was determined as 0.22 E-score.

With CGAGACAC, the binding signal is -0.204 E-score.

Consider CGGTGCCC, for which the binding signal is -0.314 E-score.

With ACTAAAGC, the binding signal was found to be 0.0469 E-score.

Sequence ACTCTTAT yielded a binding signal of 0.0525 E-score.

The sequence CTAATCCC yielded a binding signal of -0.207 E-score.

CCGCATGC gave a binding signal of -0.0458 E-score.

As for CGCAAGAA, the binding signal is -0.0375 E-score.

Take CGGGCGAG: the binding signal is -0.29 E-score.

In the case of ATCTGGCG, the binding signal is -0.253 E-score.

GGCCCTAC had a binding signal of -0.323 E-score.

CTGCCACC: the binding signal was -0.282 E-score.

As to TGCAAAAA, the binding signal was 0.0792 E-score.

With CGGAATAG, the binding signal amounted to 0.163 E-score.

Regarding GGACTGGA, the binding signal is -0.124 E-score.

For the sequence AGCGAGCC, the binding signal was -0.201 E-score.

In turn, CCCTAACC had a binding signal of -0.406 E-score.

Sequence CAGATATG came in with a binding signal of 0.125 E-score.

In turn, TGCAACCA came in with a binding signal of 0.0881 E-score.

For ACCGGTTG, the binding signal is -0.0533 E-score.

CCTGGGCG had a binding signal of -0.311 E-score.

For the sequence ATTAGCTC, the binding signal amounted to 0.135 E-score.

With CCACTCCA, the binding signal was -0.194 E-score.

The sequence GACGGGCA displayed a binding signal of -0.159 E-score.

ACGGACAG: the binding signal is -0.181 E-score.

TCGGGTAA displayed a binding signal of -0.0826 E-score.

The sequence ATTAGTTC gave a binding signal of 0.172 E-score.

On to TGATATAA, for which the binding signal was 0.371 E-score.

ATGAATTG gave a binding signal of 0.0516 E-score.

For GCTCCCTA, the binding signal is -0.21 E-score.

In turn, AGAGAGCC returned a binding signal of -0.214 E-score.

In turn, CAACGGAG had a binding signal of -0.248 E-score.

AGAGGCAA gave a binding signal of -0.285 E-score.

For the sequence AAAGCTGC, the binding signal came out at 0.0771 E-score.

For ATGGTGAG, the binding signal was -0.0135 E-score.

As for GGTCCGTA, the binding signal is -0.151 E-score.

Sequence GCAGTAGC gave a binding signal of -0.0296 E-score.

In the case of CTGCCATA, the binding signal is -0.0185 E-score.

GAGACCTC had a binding signal of -0.168 E-score.
